About 1,700 (3.3%) of roughly 52,000 compounds were called active. Cut-off read from the data, not from the text of the source: active = survival mostly below about 52% (no sharp cut-off); inactive = mostly above about 56%. The list shows a part of the results.
Test system: Wild type
Experiment: S. aureus survival, RN4220 and DeltatarO strains – OD600, teichoic acid synthesis inhibitors, primary screen (AID 463173)
Settings: S. aureus RN4220 wild type/DeltatarO growth, OD600, 18 h, hits give low values, screened at 18.75 µg/mL (by protocol)

Structure (SMILES)	survival
CCOC(=O)c1ccc(N2C(=O)CC(N3CCN(c4ccc(O)cc4)CC3)C2=O)cc1 (stereo unspecified)	inactive: 102%
O=C(Nc1ccc(-c2nnn(CC(=O)N3CCN(C(=O)c4ccco4)CC3)n2)cc1)c1ccccc1F	inactive: 98%
Cc1ccc(NC(=O)CCc2nc(-c3ccccc3F)no2)c(C)c1	inactive: 90%
CN1CCCCc2c1nc1ccccc1c2N	inactive: 112%
Nc1nnc(CCS(=O)(=O)c2ccc3ccccc3c2)s1	inactive: 84%
CCOc1cc2c(cc1OCC)C(CC(=O)OC)N(C(=O)Nc1cc(C)cc(C)c1)CC2 (stereo unspecified)	inactive: 72%
COc1cc(C(=O)Nc2sc3c(c2C#N)CCCC3)c(Br)c(OC)c1OC	inactive: 76%
CCOc1ccccc1CNC(=O)c1ccc2c(c1)N(CC)CCS2	inactive: 33%
COc1cccc(CNC(=O)C(Cc2ccccc2)NS(=O)(=O)c2ccc3c(c2)CCN3C(C)=O)c1 (stereo unspecified)	inactive: 75%
Cc1ccc(-n2nc(C(=O)NC(C)C)c(=O)n(C)c2=O)cc1	inactive: 71%
Cc1cccc(OCC(=O)Nc2nnc(S(=O)(=O)N3CCCCCC3)s2)c1	inactive: 51%
CS(=O)(=O)c1ncc(Cl)c(C(=O)N(Cc2ccc(Cl)cc2)Cc2ccco2)n1	inactive: 19%
Cc1oc(-c2ccccc2Cl)nc1CS(=O)CC(=O)N1CCN(c2cccc(C(F)(F)F)c2)CC1 (stereo unspecified)	inactive: 129%
O=C(O)C1CCCN1c1ncccn1 (stereo unspecified)	inactive: 105%
Cn1nnnc1SCCCNCc1cc(Br)ccc1OCc1ccccc1	inactive: 84%
Cc1nc2sccn2c(=O)c1S(=O)(=O)Nc1ccc(N2CCN(C)CC2)cc1	inactive: 93%
NC(=O)c1cccc(S(=O)(=O)N2CCOCC2)c1	inactive: 106%
COc1ccc(-c2nn3c(=O)cc(CN4CCN(C(=O)Nc5cc(C)ccc5C)CC4)nc3s2)cc1	inactive: 125%
COc1cc(OC)c(NC(=O)NCCn2nnc3cc(S(=O)(=O)N(C)C)ccc32)cc1Cl	inactive: 63%
CCOC(=O)c1c(C)[nH]c(C)c1S(=O)(=O)N1CCC(C(=O)NCc2ccc(F)cc2)CC1	active: 1%
Cc1cc(-c2ccc(S(=O)(=O)Nc3cccc(C)c3C)s2)on1	inactive: 134%
COc1ccc(-c2c(C#N)c(SCC(=O)Nc3ccc(C)c(C)c3)nc(C)c2C(=O)Nc2ccc(Cl)cc2)cc1	inactive: 91%
CCOc1ccc(CCNC(=O)C(CC)n2nc(C)c3c(C)n(-c4ccccc4)nc3c2=O)cc1 (stereo unspecified)	inactive: 73%

Structure (SMILES)	survival
Cc1cccc(N2CCN(C(=O)c3sc4nc5n(c(=O)c4c3C)CCC5)CC2C)c1 (stereo unspecified)	inactive: 86%
CCCCSCCCNC(=O)C1CCN(Cc2nc(-c3ccc(CC)cc3)oc2C)CC1	inactive: 51%
O=C(CSc1nnc(-c2ccccc2Br)n1-c1ccccc1)c1ccc(F)cc1	active: 4%
Cc1nc2ccn(Cc3cccnc3)c(=O)c2cc1C(=O)NCc1ccccc1	inactive: 68%
O=c1[nH]c(SCc2ccccc2)nc2c1CCCC2	inactive: 84%
CC(C)(C)C1CCc2nc(NC(=O)c3cccc(Cl)c3)sc2C1 (stereo unspecified)	inactive: 51%
COC(=O)c1ccc(OCC2c3cc(OC)c(OC)cc3CCN2C(=O)c2ccc(OC)cc2)cc1 (stereo unspecified)	inactive: 84%
O=C(NC1CCCC1)c1ccc(CSc2nc3cccnc3n2Cc2cccc(F)c2)cc1	inactive: 81%
COc1cc(OC)c(NC(=O)Cc2c(C(=O)O)c(C)cn2C)cc1Cl	inactive: 72%
COc1ccc(NC(=O)C2=C(C)Nc3ncnn3C2c2sccc2C)cc1 (stereo unspecified)	inactive: 76%
CC(=O)N1CCCC1c1nc2ccccc2n1Cc1c(F)cccc1Cl (stereo unspecified)	inactive: 81%
CC(C)(C)c1ccc(C(=O)NCCN2CCCC2)cc1	inactive: 94%
CCCCn1c(=O)c2oc3ccccc3c2n(CC(=O)Nc2cc(C)ccc2C)c1=O	inactive: 91%
Cc1ccc(CNC(=O)Cc2c(C(=O)O)c(C)cn2C)cc1	inactive: 85%
CCc1ccc(OCC(=O)Nc2ccc(S(=O)(=O)Nc3onc(C)c3C)cc2)cc1	inactive: 88%
COc1ccc(OC2CCN(S(=O)(=O)c3cccc(F)c3)CC2)cc1	inactive: 97%
Cc1ccc2oc(=O)n(CCNC(=O)Nc3ccccc3C)c2c1	inactive: 119%
COc1ccc(C)cc1NC(=O)C(NS(=O)(=O)c1cccs1)c1ccccc1 (stereo unspecified)	inactive: 43%
Cc1cccc(C(=O)N2CCNC(=O)C2CC(=O)Nc2ccc(F)cc2)c1 (stereo unspecified)	inactive: 76%
Cc1ccccc1NC(=O)Nc1csc2c1CCCC2	inactive: 74%
COc1ccc(C(=O)CSc2nc3cc(C(=O)NC4CCCC4)ccc3c(=O)n2CC2CCCO2)cc1 (stereo unspecified)	inactive: 76%
CC(C)NC(=O)C(F)(F)F	inactive: 106%
CCOc1ccc(CN2C(=O)c3ccccc3Sc3ccc(C(=O)NCc4ccc5c(c4)OCO5)cc32)cc1	inactive: 89%

Structure (SMILES)	survival
Cc1cccc(NC(=O)Cn2c(=O)n(CCc3ccccc3)c(=O)c3ccccc32)c1	inactive: 100%
Oc1ccccc1C(C#Cc1ccccc1)N1CCOCC1 (stereo unspecified)	inactive: 110%
COc1ccc(C2C(C(=O)Nc3ccccc3)=C(C)Nc3nc(-c4ccccc4)nn32)c(OC)c1 (stereo unspecified)	inactive: 105%
COC(=O)c1cc2oc3ccccc3c2n1CC(=O)Nc1cccc(SC)c1	inactive: 71%
CCCOc1cccc(C(=O)Nc2cc(-c3nc4ccccc4[nH]3)ccc2C)c1	inactive: 71%
CCCc1cnc2c(c1SCc1cccc(C)c1)c(=O)n(C)c(=O)n2C	inactive: 75%
COc1ccc(S(=O)(=O)NCCc2sc(C)nc2C)cc1	inactive: 67%
COC(=O)CSc1nc2c(cc1C#N)CCCC2	inactive: 130%
COc1cc(OC)c(NC(=O)c2sc3nc4n(c(=O)c3c2C)CCCC4)cc1Cl	inactive: 89%
CCCCC(=O)N1CC(=O)Nc2ccc(F)cc2C1c1ccc(F)cc1 (stereo unspecified)	inactive: 83%
COc1ccc(-n2c(-c3ccccc3F)nc3c(cnn3-c3ccc(C)cc3)c2=O)cc1	inactive: 90%
CCOc1cc(Cn2c(-c3ccc(O)c(OCC)c3)nc3ccccc32)ccc1O	inactive: 80%
N#Cc1c(N)sc2c1CCCC2	inactive: 81%
O=C(CC1C(=O)OCCN1Cc1ccccc1)Nc1cccc(Cl)c1 (stereo unspecified)	inactive: 138%
Cc1ccc(CCNC(=O)CN2C(=O)COc3ccc(S(=O)(=O)N4CCCC4)cc32)cc1	inactive: 81%
Cc1cc(C)cc(NC(=O)c2nnn(Cc3cccc(Br)c3)c2N)c1	inactive: 80%
Cc1ccc(S(=O)Cc2ccc(C(=O)NCc3ccc(OC(C)C)cc3)o2)cc1 (stereo unspecified)	inactive: 59%
Cc1nc2c3cccnc3nn2c(C)c1CCC(=O)NCc1ccccc1Cl	inactive: 125%
O=C1CC(SCc2nc3ccccc3[nH]2)C(=O)N1c1ccc(F)cc1 (stereo unspecified)	inactive: 88%
Cc1ccc2c(Sc3ccccc3)c(C(=O)NCc3ccccc3F)[nH]c2c1	inactive: 91%
CCOc1ccccc1NC(=O)CSc1nc2ccccc2nc1Cc1ccc(C)cc1	inactive: 77%
CC(=O)OC(C(=O)NC1CCCCC1)c1ccccc1 (stereo unspecified)	inactive: 111%
CC(=O)c1ccc(NC(=O)c2sc(-n3nc(C)c(CCC(C)C)c3C)nc2C)cc1	inactive: 103%

Structure (SMILES)	survival
CN=C1S/C(=C\c2cn(CC(=O)NCc3ccco3)c3ccccc23)C(=O)N1C	inactive: 109%
CCn1c(CNC(=O)C23CC4CC(CC(C4)C2)C3)nnc1SCC(=O)Nc1ccc(C)cc1	inactive: 82%
CC(=O)Nc1ccccc1-c1nc2ccccc2n(C(C)C(=O)Nc2cc(Cl)ccc2C)c1=O (stereo unspecified)	inactive: 83%
CCN(CC)S(=O)(=O)c1nnc(NC(=O)COc2ccc(C)cc2)s1	inactive: 85%
CC(=O)Nc1ccc(NC(=O)CCc2c(C)nc3c(c(C)nn3-c3ccc(C)cc3)c2C)cc1	inactive: 129%
CCCn1c(SCC(=O)c2ccccc2)nnc1C(C)C	inactive: 105%
CCOc1ccc(NC(=O)c2ccc(CN3C(=O)C(C)=C(c4ccc(C)cc4)S3(=O)=O)cc2)cc1	inactive: 77%
Cc1ccc(C)c(NC(=O)CSc2nnc(CNC(=O)c3ccccc3)n2-c2ccccc2)c1	inactive: 63%
CCC(=O)Nc1ccccc1-c1nc2ccccc2n(Cc2cccc(Br)c2)c1=O	inactive: 87%
C=CCN(CC=C)C(=O)C1CCN(S(=O)(=O)c2ccc(-n3cnnn3)cc2)CC1	inactive: 100%
O=C(Nc1ccccc1Cl)c1ccc(F)c(S(=O)(=O)NCc2ccc(Cl)c(Cl)c2)c1	inactive: 69%
COc1ccc(CN2CCCN(CC(=O)Nc3cc(C)ccc3C)S2(=O)=O)cc1	inactive: 80%
CCOC(=O)c1sc(N2C(=O)c3oc4cc(C)c(C)cc4c(=O)c3C2c2ccc(C)cc2)nc1C (stereo unspecified)	inactive: 149%
CC(=O)N1CCCc2cc(S(=O)(=O)N(CCN(C)C)Cc3ccccc3)ccc21	inactive: 74%
CCc1ccc2oc(C(=O)NCC(c3ccc(Cl)cc3)N3CCOCC3)c(C)c2c1 (stereo unspecified)	inactive: 75%
CCOC(=O)c1c(C)oc2nc(C)nc(Nc3cc(C)cc(C)c3)c12	inactive: 82%
Cc1ccc(-n2ncc3c(N4CCCCC4)ncnc32)cc1Cl	inactive: 64%
COc1ccc(-c2cc(OC(=O)c3ccccc3C)c3c(C)oc(C)c3c(=O)c2)cc1	inactive: 67%
CCc1cccc(C)c1NC(=O)c1cc(S(=O)(=O)N(C)Cc2ccccc2)ccc1F	inactive: 124%
O=C1c2cccnc2C(=O)N1c1ccc(-c2nc3cc(Cl)ccc3o2)cc1	inactive: 105%
CC1Cc2ccccc2N1C(=O)C1CCN(S(=O)(=O)Cc2ccccc2)CC1 (stereo unspecified)	inactive: 108%
O=C(CSc1nc2ccccc2n1Cc1ccc(F)cc1)N1CCN(c2ccc(F)cc2)CC1	inactive: 69%

From PubChem BioAssay AID463173 (ICCB-Longwood Screening Facility, Harvard Medical School, 2010)
